Source: PubChem BioAssay AID588453 (National Center for Advancing Translational Sciences (NCATS), 2011)
Values joined by “and” are separate entries in the source; they are usually repeats but may differ in a detail not shown here. Equal entries are not always repeated. Hit rate of the full screen: of about 390,000 compounds, about 4,000 (1%) were called active. This list was built around the results that the source calls inconclusive (neither active nor inactive); the mix of calls is not that of the screen. Calls follow the shape of the dose curve; as a rule, active = well fitted inhibition curve with a large enough effect; inconclusive = small, poorly fitted or top-dose-only effect; inactive = no such curve, though single readings can be large or run the other way. Potencies of inconclusive entries are doubtful fits and often do not repeat.
% is scaled to controls: 0 for no effect and ±100 for the full control effect; potency is read from the fitted curve at half-maximal effect; tags tell the direction and shape of the fitted curve.
Also: nearly all actives have a fitted effect of over 65% in size.

These compounds were tested against Thioredoxin reductase 1, cytoplasmic (Rattus norvegicus) (UniProt O89049) (assay: qHTS Assay for Inhibitors of Mammalian Selenoprotein Thioredoxin Reductase 1 (TrxR1): qHTS). Conditions: recombinant rTrxR1, NADPH fluorescence consumption, selenite substrate; series mostly up to 114 µM.
UniProt O89049, sequence (O89049 whole entry, looked up): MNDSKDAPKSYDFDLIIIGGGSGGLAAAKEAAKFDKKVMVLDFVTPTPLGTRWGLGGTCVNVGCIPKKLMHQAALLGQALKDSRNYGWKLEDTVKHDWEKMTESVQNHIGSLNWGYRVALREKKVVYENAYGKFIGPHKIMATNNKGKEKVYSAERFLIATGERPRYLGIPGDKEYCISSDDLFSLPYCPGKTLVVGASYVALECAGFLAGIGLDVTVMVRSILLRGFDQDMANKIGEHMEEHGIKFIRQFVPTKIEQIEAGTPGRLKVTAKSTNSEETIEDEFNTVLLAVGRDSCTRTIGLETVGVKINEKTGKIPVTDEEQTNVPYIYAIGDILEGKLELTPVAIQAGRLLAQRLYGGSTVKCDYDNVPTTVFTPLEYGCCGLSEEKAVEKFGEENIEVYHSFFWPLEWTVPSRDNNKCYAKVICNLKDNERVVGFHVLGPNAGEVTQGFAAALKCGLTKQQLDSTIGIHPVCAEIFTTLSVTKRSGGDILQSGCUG
Summary of the method: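 Rat TrxR1 (90 nM in the dispensed reagent) was pre-reduced with 400 uM NADPH for 5 min at room temperature, then incubated with compound for 15 min. After 400 uM selenite was added, NADPH fluorescence (Ex 340/Em 450 nm) was followed for 8 min.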
COc1ccc(C(=O)CCN2CCC(C)CC2)cc1 was tested, and the Potency was active: 0.708 µM.
In the case of O=C(c1cnn2c(C(F)(F)F)cc(-c3ccco3)nc12)N1CCc2ccccc2C1, the Potency is reported as inconclusive: 20 µM [inhibitor, partial curve].
For O=C1C=CC(=O)N1c1ccc(Nc2ccccc2)cc1, the Potency was inconclusive: 1 µM [inhibitor, single point].
In the case of Cc1nc2ccc(Cl)cc2nc(C)/c1=N\O, the Potency is reported as inconclusive: 89.1 µM [inhibitor, single point].
In the case of O=[N+]([O-])c1cccc(/C=N/Nc2ccccn2)c1, the Potency is reported as “inactive”.
With Cc1ccc(-c2nc3ccccc3[nH]2)cc1NC(=O)c1ccc2c(c1)OCO2 the Potency was “inactive”.
With O=C(Cn1cccc1C(=O)c1ccccc1)NCCCN1CCOCC1 the Potency was “inactive”.
Clc1cccc(-c2ccc(-c3nc4ccccn4c3NCc3ccccc3)cc2)c1 was tested, and the Potency was inconclusive: 70.8 µM [inhibitor, single point].
In the case of O=C(NCC1CCCCC1)C1(CC2CC(c3ccc(Cl)cc3)=NO2)CCNCC1 (configuration not stated), the Potency is reported as inconclusive: 89.1 µM [inhibitor, single point].
With CN1C(=O)/C(=N/OC(=O)c2ccccc2Br)c2ccccc21 the Potency was inconclusive: 17.8 µM [inhibitor, full curve, poor fit].
With Cc1cc2oc(=O)cc(CSc3nnc(C)n3N)c2cc1C(C)C the Potency was “inactive”.
CC(C)C[C@@H](CNCC(=O)[C@H](Cc1ccccc1)NC(=O)c1[nH]cnc1C(=O)N[C@H](CN)CC(C)C)NC(=O)c1nc[nH]c1C(=O)N[C@@H](CC(=O)O)C(=O)O was tested, and the Potency was inconclusive: 89.1 µM [inhibitor, single point].
In the case of CCOC(=O)N1CCN(c2cc(=O)n(-c3ccccc3Cl)c(=O)[nH]2)CC1, the Potency is reported as inconclusive: 79.4 µM [inhibitor, partial curve, poor fit].
With Cc1cnc(CNC(=O)CC2C(=O)NCCN2Cc2cccc(F)c2F)cn1 (configuration not stated) the Potency was inconclusive: 70.8 µM [inhibitor, partial curve, poor fit].
Cc1cc(NCCCCO)n2c(nc3ccccc32)c1C#N was tested, and the Potency was “inactive”.
In the case of CC(=O)N1CCCc2cc(S(=O)(=O)NCc3ccc(OC(C)C)cc3)ccc21, the Potency is reported as “inactive”.
With COc1ccc(C=CC(=O)C=CC=Cc2ccccc2)cc1 the Potency was inconclusive: 25.1 µM [inhibitor, partial curve].
O=[N+]([O-])c1cc([N+](=O)[O-])c(Oc2cccc(Cl)c2Cl)cc1NN1CCCCC1 was tested, and the Potency was “inactive”.
With Clc1ccc(-c2noc(CSc3nnc(Cc4cccs4)n3-c3ccccc3)n2)cc1 the Potency was “inactive”.
For CCOC(=O)CC1=C(C(=O)OCC)C(c2ccc(C)o2)C(C#N)=C(N)O1 (configuration not stated), the Potency was inconclusive: 28.2 µM [inhibitor, partial curve, poor fit].
O=C(c1cccc([N+](=O)[O-])c1)N1CCN(c2ccccn2)CC1 was tested, and the Potency was inconclusive: 39.8 µM [inhibitor, single point].
Oc1ccc(C2Nc3cccc4cccc(c34)N2)c(O)c1 was tested, and the Potency was inconclusive: 79.4 µM [inhibitor, partial curve].
In the case of C=CC(=O)N1c2ccccc2Sc2ccc(NC(=O)OCC)cc21, the Potency is reported as inconclusive: 89.1 µM [inhibitor, single point].
For O=C(OC1CCOC1=O)c1ccccc1C(=O)c1ccc(Cl)c([N+](=O)[O-])c1 (configuration not stated), the Potency was inconclusive: 70.8 µM [inhibitor, partial curve, poor fit].
Cc1cc(Cl)ccc1OCC(=O)Nc1cccc(-c2nc3ccccc3o2)c1 was tested, and the Potency was “inactive”.
With Cc1occc1-c1nnc(SCC(=O)N2CCOCC2)n1CC(C)C the activity change, negative = inhibition was inactive: -1.84% [at 11.4 µM].
With COC(=O)Cc1c(C)c2ccc(OCC(=O)N(C)C)cc2oc1=O the Potency was inconclusive: 39.8 µM [inhibitor, single point].
With COc1ccccc1-c1nn(-c2ccccc2)cc1C(=O)N1CCN(C(=O)c2ccco2)CC1 the Potency was “inactive”.
O=C1CC(O)(c2ccccc2)C(c2ccccc2)=C1c1ccccc1 (configuration not stated) was tested, and the Potency was inconclusive: 31.6 µM [inhibitor, single point].
In the case of O=C(CSc1nnc(-c2ccco2)n1CC1CCCO1)c1ccc(F)cc1 (configuration not stated), the Potency is reported as active: 15.8 µM.
For CN1C(=O)C(O)(CC(=O)c2ccncc2)c2ccccc21 (configuration not stated), the Potency was inconclusive: 14.1 µM [inhibitor, partial curve].
Cc1ccc(/C=C/C(=O)N2CCN(Cc3ccccc3)CC2)o1 was tested, and the Potency was active: 44.7 µM.
With C(=N\Nc1ccccc1)/c1ccc(N2CCOCC2)cc1 the Potency was inconclusive: 79.4 µM [inhibitor, partial curve, poor fit].
In the case of CN(CCCC1CCCC1)C(=O)CC1C(=O)NCCN1Cc1cccc(F)c1F (configuration not stated), the Potency is reported as active: 39.8 µM.
O=C(O)CCn1cc(/C=C2\NC(=S)N(c3ccccc3)C2=O)c(-c2ccc(Br)cc2)n1 was tested, and the Potency was inconclusive: 25.1 µM [inhibitor, partial curve].
With O=C(Nc1ccccn1)c1ccc2ccccc2c1O the Potency was “inactive”.
With CCCCC(CC)CNCc1cccn1CCN1CCOCC1 (configuration not stated) the Potency was inconclusive: 10 µM [inhibitor, partial curve].
With CC(=O)N(Cc1ccccc1)c1ncc2c(n1)c(=O)c(C#N)c1ccccn12 the Potency was inconclusive: 39.8 µM [inhibitor, full curve].
For COc1ccc(-c2cc(C(=O)Nc3cccc(O)c3)on2)cc1OC, the Potency was “inactive”.
With CCCC1C(c2ccccc2)C(C#N)(C#N)C2(C#N)CC1(N)NC2=O (configuration not stated) the Potency was inconclusive: 4.47 µM [inhibitor, full curve, poor fit].
In the case of O=c1oc2cc(OCc3nn[nH]n3)ccc2c2c1CCCC2, the Potency is reported as inconclusive: 79.4 µM [inhibitor, single point].
CCN1C(=O)C(CC(=O)Nc2ccc(OC)cc2)N(CCc2ccccc2F)C1=S (configuration not stated) was tested, and the Potency was “inactive”.
In the case of COc1ccccc1CCN1CCCC(CN(C)C(=O)c2ccc3nc[nH]c3c2)C1 (configuration not stated), the Potency is reported as inconclusive: 89.1 µM [inhibitor, single point].
In the case of CCN(C(=O)COC(=O)c1cc(OC)ccc1Br)C1CCS(=O)(=O)C1 (configuration not stated), the Potency is reported as inconclusive: 100 µM [inhibitor, single point].
Oc1c(C=Nc2cccc3nsnc23)ccc2ccccc12 was tested, and the Potency was active: 39.8 µM.
For CS(=O)(=O)n1nc(-c2ccc(Cl)cc2)nc1SCc1ccccc1, the Potency was inconclusive: 89.1 µM [inhibitor, single point].
Cc1sc2nc(SCC(=O)c3cccs3)n(Cc3ccco3)c(=O)c2c1C was tested, and the Potency was inconclusive: 44.7 µM [inhibitor, single point].
For CC(SC#N)C(=O)C12CC3CC(CC(C3)C1)C2 (configuration not stated), the Potency was inconclusive: 79.4 µM [inhibitor, partial curve, poor fit].
Cc1ccc(NC(=O)c2sc(C)nc2C)c(C)c1 was tested, and the Potency was inconclusive: 22.4 µM [inhibitor, partial curve, poor fit].
For O=C1N/C(=C/c2ccco2)C(=O)N1Cc1ccccc1F, the Potency was inconclusive: 39.8 µM [inhibitor, partial curve, poor fit].
With CC(C)CCn1nnnc1C(c1ccc(N(C)C)cc1)N1CCN(C(=O)c2ccco2)CC1 (configuration not stated) the Potency was inconclusive: 11.2 µM [inhibitor, partial curve, poor fit].
CC(C)(C)OC(=O)N1CCC(c2c(C(=O)NCc3ccco3)cnn2-c2ccccc2Cl)CC1 was tested, and the Potency was inconclusive: 17.8 µM [inhibitor, partial curve, poor fit].
For CN1C/C(=C/c2cccs2)C(=O)/C(=C\c2cccs2)C1, the Potency was inconclusive: 56.2 µM [inhibitor, partial curve, poor fit].
For COc1ccc(C(C)=O)cc1CSc1nc2cc(C(=O)O)ccc2c(=O)n1Cc1ccccc1, the Potency was active: 28.2 µM.
For Cc1nnc(SCC2=C(C(=O)O)N3C(=O)C(NC(=O)c4cccc(F)c4F)C3SC2)s1 (configuration not stated), the Potency was inconclusive: 11.2 µM [inhibitor, full curve].
For COc1cccc(NC(=S)NC(=O)Cc2ccccc2)c1, the Potency was inconclusive: 56.2 µM [inhibitor, partial curve, poor fit].
CCCCN(Cc1ccco1)C(=O)Cn1ncc2c(=O)oc3ccc(C)cc3c21 was tested, and the Potency was “inactive”.
C=C1CCN([C@@H](Cc2ccccc2)C(=O)O)S(=O)(=O)c2ccccc21 was tested, and the Potency was “inactive”.
With O=S(=O)(Nc1ccc2c(c1)nc1n2CCN(Cc2ccccc2)C1)c1ccc(F)cc1 the Potency was inconclusive: 25.1 µM [inhibitor, partial curve, poor fit].
Cc1onc(-c2ccccc2)c1C(=O)N1CCN(Cc2ccccc2)CC1 was tested, and the Potency was inconclusive: 79.4 µM [inhibitor, single point].
For S=C(Nc1ccc(Cl)cc1)N(CCCN1CCOCC1)Cc1cccs1, the Potency was “inactive”.
In the case of COC(=O)CCCC1=CC2=C(c3ccccc3)C(=O)C(C)(OC(=O)C3CCCC3)C(=O)C2=CN1c1ccccc1 (configuration not stated), the Potency is reported as inconclusive: 50.1 µM [inhibitor, partial curve].
With N#C/C(=C\c1cccnc1)C(=O)NC1CCCCC1 the Potency was inconclusive: 44.7 µM [inhibitor, partial curve].
For COc1ccc2[nH]c(C)c(CCN(Cc3cccs3)C(=S)Nc3ccccc3)c2c1, the Potency was inconclusive: 89.1 µM [inhibitor, single point].
CC(=O)N(C1=C(N2CCOCC2)C(=O)c2ccccc2C1=O)c1ccc(C(=O)O)cc1 was tested, and the Potency was active: 7.94 µM.
COc1cccc(N2CC(C(=O)Nc3nnc(SCC(=O)NC4CCCC4)s3)CC2=O)c1 (configuration not stated) was tested, and the Potency was inconclusive: 89.1 µM [inhibitor, partial curve, poor fit].
O=C(Nc1cccnc1)c1ccc(COc2ccccc2Br)o1 was tested, and the Potency was “inactive”.
For CC[C@]12c3[nH]c4ccc(OC)cc4c3CCN1C(=O)C(CC(=O)NC/C=C(\C)CCC=C(C)C)C[C@@H]2C(=O)N1CCN(C(=O)C2CC2)CC1 (some centres not stated), the Potency was inconclusive: 50.1 µM [inhibitor, partial curve].
Cc1cccc(Cn2c(=O)n3nc(-c4ccccc4)nc3c3ccccc32)c1 was tested, and the Potency was “inactive”.
For Cc1ccc(N2C(N)=C(C#N)C(c3cccs3)C3=C2CC(C)(C)CC3=O)cc1 (configuration not stated), the Potency was inconclusive: 31.6 µM [inhibitor, single point].
CCOc1ccccc1NC(=O)CSc1nncc2ccccc12 was tested, and the Potency was inconclusive: 50.1 µM [inhibitor, partial curve, poor fit].
In the case of Cc1ccc(C(=O)C2=C(O)C(=O)N(Cc3ccco3)C2c2cccc(Cl)c2)o1 (configuration not stated), the Potency is reported as inconclusive: 17.8 µM [inhibitor, partial curve, poor fit].
With O=C(/C=C/c1ccc(Cl)cc1)Nn1c(-c2cccs2)nc2ccccc2c1=O the Potency was inconclusive: 89.1 µM [inhibitor, single point].
In the case of COc1ccc(-c2nc3ccc(NC(=O)CO)cc3c(=O)n2Cc2cccc(Cl)c2)cc1COc1ccc(NC(C)=O)cc1, the Potency is reported as inconclusive: 20 µM [inhibitor, full curve, poor fit].
O=C(O)c1cc(O)c2c(c1)[C@H]([C@H]1c3cc(C(=O)O)cc(O)c3C(=O)c3c(O[C@@H]4O[C@H](CO)[C@@H](O)[C@H](O)[C@H]4O)cccc31)c1cccc(OC3O[C@H](CO)[C@@H](O)[C@H](O)[C@H]3O)c1C2=O (some centres not stated) was tested, and the Potency was active: 79.4 µM.
With O=C(Oc1coc(CSc2nnc(NC(=O)C3CC3)s2)cc1=O)c1ccccc1 the Potency was inconclusive: 28.2 µM [inhibitor, partial curve].
With CN1/C(=C\C(=O)COC(=O)CNC(=O)c2ccccc2F)C(C)(C)c2ccccc21 the Potency was “inactive”.
With Cc1cc(O)c(C(c2cccc(F)c2)N2CCN(c3ccccc3)CC2)c(=O)n1Cc1ccco1 (configuration not stated) the Potency was inconclusive: 10 µM [inhibitor, partial curve].
CN(c1ccccc1)S(=O)(=O)c1ccc(NC(=O)c2nc(S(C)(=O)=O)ncc2Cl)cc1 was tested, and the Potency was active: 1.26 µM and active: 794 nM.
In the case of OCCCNC(=S)Nc1ccc2nccnc2c1, the Potency is reported as inconclusive: 44.7 µM [inhibitor, partial curve].
With COc1ccccc1CN1CC(C(=O)NCCc2ccc(C)o2)CCC1=O (configuration not stated) the Potency was active: 50.1 µM.
For O=C(Nc1cccc(C(=O)O)c1)/C(=C/c1cccc([N+](=O)[O-])c1)NC(=O)c1cccc(Br)c1, the Potency was “inactive”.
In the case of O=C(c1ccco1)c1nnn(Cc2ccccc2)c1-c1ccccc1, the Potency is reported as inconclusive: 50.1 µM [inhibitor, partial curve, poor fit].
COc1ccc(C(C#N)CCC2OCCO2)cc1OC (configuration not stated) was tested, and the Potency was “inactive”.
CC(C)C(=O)NC(=S)Nc1ccc(S(=O)(=O)Nc2ccccc2)cc1 was tested, and the Potency was inconclusive: 44.7 µM [inhibitor, partial curve, poor fit].
In the case of CSc1ccc(CCNC(=O)NCc2noc3ccccc23)cc1, the Potency is reported as “inactive”.
With CC(C)NC(=S)N/N=C1\CCCCc2ccccc21 the Potency was “inactive”.
